The other results are listed elsewhere or left out.

One assay concerns HSkMC (human skeletal muscle cells). In words: cytotoxicity call (relative viability < 0.9). To be noted: 10 µM.
As to `C[C@@H]1CCCCO[C@H](CN(C)S(=O)(=O)c2ccccc2)[C@H](C)CN([C@@H](C)CO)C(=O)c2cc(NC(=O)Nc3cccc4ccccc34)ccc2O1`, the cytotoxicity call was “inactive”.

Consider `C[C@H]1CN([C@@H](C)CO)C(=O)c2cc(NC(=O)c3ccncc3)ccc2O[C@H]1CN(C)S(=O)(=O)c1ccccc1`, for which the cytotoxicity call is “inactive”.

Take `Cc1noc(C)c1NC(=O)Nc1cccc2c1O[C@H](CN(C)S(=O)(=O)c1ccccc1)[C@@H](C)CN([C@H](C)CO)C2=O`: the cytotoxicity call was “inactive”.

With `CC(C)NC(=O)N(C)C[C@H]1Oc2ccc(NC(=O)NC3CCCCC3)cc2C(=O)N([C@@H](C)CO)C[C@H]1C`, the cytotoxicity call was “inactive”.

Turning to `COc1ccc(CN(C)C[C@@H]2Oc3c(NC(=O)Nc4ccc(C(F)(F)F)cc4)cccc3C(=O)N([C@@H](C)CO)C[C@H]2C)cc1`, the cytotoxicity call is “active”.

With `C[C@H](CO)N1C[C@H](C)[C@H](CN(C)Cc2ccc(C(F)(F)F)cc2)OCCCC[C@H](C)Oc2ccc(NC(=O)Nc3ccc4c(c3)OCO4)cc2C1=O`, the cytotoxicity call was “inactive”.

For the compound `COc1ccc(CN(C)C[C@@H]2OCCCC[C@H](C)Oc3ccc(NS(=O)(=O)c4cccs4)cc3C(=O)N([C@@H](C)CO)C[C@H]2C)cc1`, the cytotoxicity call was “inactive”.

Turning to `CCN1C(=O)[C@H]2[C@H]3[C@H](O)[C@H](O)C/C(=N\OC[C@@H](O)COCc4ccco4)[C@@H]3CC[C@H]2C1=O`, the cytotoxicity call was “inactive”.

Consider `Cc1ccccc1S(=O)(=O)N1C[C@H](O)COC[C@@H]2O[C@@H](CC(=O)NCCc3ccccc3)CC[C@H]21`, for which the cytotoxicity call was “inactive”.

As for `O=C(C[C@@H]1C=C[C@H](NC(=O)CN2CCOCC2)[C@H](CO)O1)NCc1cccc(F)c1`, the cytotoxicity call was “inactive”.

For `CC(C)NC(=O)N[C@H]1C=C[C@@H](CC(=O)NCCN2CCCC2)O[C@@H]1CO`, the cytotoxicity call was “inactive”.

In the next assay the test system is HepG2. In words: cytotoxicity call (relative viability < 0.9). To be noted: 10 µM.
In the case of `Nc1ccc(S(=O)(=O)Nc2ccc(Cl)nn2)cc1`, the cytotoxicity call is “inactive”.

Regarding `C/C=C/C1=CC(=O)[C@H](O)[C@H]1O`, the cytotoxicity call was “inactive”.

`C[C@@H](N)c1ccc(C(=O)Nc2ccnc3[nH]ccc23)cc1`: the cytotoxicity call is “active”.

As for `CN1CCC(=C2c3ccccc3Sc3ccccc32)CC1.O=C(O)C=CC(=O)O`, the cytotoxicity call is “active”.

Regarding `O=C(N/N=C/[C@H](O)[C@@H](O)[C@H](O)[C@H](O)CO[C@H]1O[C@H](CO)[C@H](O)[C@H](O)[C@H]1O)c1ccccn1`, the cytotoxicity call was “inactive”.

Consider `Cc1noc(C)c1S(=O)(=O)N(C)C[C@@H]1Oc2ccc(NC(=O)Nc3ccc4c(c3)OCO4)cc2CC(=O)N([C@@H](C)CO)C[C@H]1C`, for which the cytotoxicity call is “inactive”.

In the case of `C[C@@H]1CN([C@@H](C)CO)C(=O)c2cccc(NS(C)(=O)=O)c2O[C@H]1CN(C)Cc1ccc(C(F)(F)F)cc1`, the cytotoxicity call is “inactive”.

Consider `O=C(C[C@H]1C=C[C@H](NC(=O)c2ccc(F)cc2)[C@H](CO)O1)NCc1ccncn1`, for which the cytotoxicity call is “inactive”.

For `Cc1noc(C)c1S(=O)(=O)Nc1ccc2c(c1)C(=O)N([C@H](C)CO)C[C@@H](C)[C@H](CN(C)C(=O)Nc1ccccc1)O2`, the cytotoxicity call was “inactive”.

Consider `C[C@@H]1CN([C@H](C)CO)S(=O)(=O)c2ccc(C#Cc3ccncc3)cc2O[C@H]1CN(C)C(=O)Nc1ccc2c(c1)OCO2`, for which the cytotoxicity call was “inactive”.

Take `C[C@@H]1CN([C@H](C)CO)C(=O)Cc2cc(NS(C)(=O)=O)ccc2O[C@H]1CN(C)S(=O)(=O)c1cn(C)cn1`: the cytotoxicity call was “inactive”.

Consider `C[C@H]1CN([C@@H](C)CO)C(=O)c2cc(NC(=O)Nc3ccc(C(F)(F)F)cc3)ccc2O[C@H]1CN(C)Cc1ccncc1`, for which the cytotoxicity call is “inactive”.

Regarding `CC(C)C[C@H](NC(=O)[C@H](CCc1ccccc1)NC(=O)CN1CCOCC1)C(=O)N[C@@H](Cc1ccccc1)C(=O)N[C@@H](CC(C)C)C(=O)[C@@]1(C)CO1`, the cytotoxicity call was “active”.

In the case of `C[C@@H]1CN([C@@H](C)CO)C(=O)Cc2cc(NC(=O)C3CCCCC3)ccc2O[C@@H]1CN(C)Cc1ccc(C(=O)Nc2ccccc2N)cc1`, the cytotoxicity call is “inactive”.

In the case of `C[C@@H]1CCCCO[C@@H](CN(C)CC2CCCCC2)[C@@H](C)CN([C@H](C)CO)C(=O)c2cc(NC(=O)Nc3cccc4ccccc34)ccc2O1`, the cytotoxicity call is “active”.

For `CO[C@H]1CN(C)C(=O)c2cc(NC(=O)C3CCOCC3)ccc2OC[C@H](C)N(Cc2cccnc2)C[C@H]1C`, the cytotoxicity call was “inactive”.

As for `C[C@H]1CN([C@@H](C)CO)S(=O)(=O)c2ccc(C#CC3CC3)cc2O[C@H]1CN(C)Cc1ccc(F)cc1`, the cytotoxicity call was “inactive”.

On to `COc1ccc(S(=O)(=O)Nc2ccc3c(c2)CC(=O)N([C@@H](C)CO)C[C@H](C)[C@@H](CN(C)Cc2ccc(-c4ccccc4)cc2)O3)cc1`, for which the cytotoxicity call was “inactive”.

Take `C[C@H]1CCCCO[C@H](CN(C)C(=O)c2ccccc2)[C@@H](C)CN([C@@H](C)CO)C(=O)c2cc(NS(=O)(=O)c3ccc(F)cc3)ccc2O1`: the cytotoxicity call is “inactive”.

In the case of `COc1ccc(NC(=O)Nc2ccc3c(c2)C(=O)N([C@H](C)CO)C[C@H](C)[C@H](CN(C)C(=O)CCC(F)(F)F)OCCCC[C@@H](C)O3)cc1`, the cytotoxicity call was “inactive”.

With `CC(=O)SC1CC2=CC(=O)CCC2(C)C2CCC3(C)C(CCC34CCC(=O)O4)C12` (stereo unspecified), the cytotoxicity call is “inactive”.

Consider `C[C@H](CO)N1C[C@H](C)[C@H](CN(C)Cc2ccc(C(=O)Nc3ccccc3N)cc2)Oc2ccc(NC(=O)Nc3ccc(C(F)(F)F)cc3)cc2C1=O`, for which the cytotoxicity call was “active”.

On to `C[C@@H]1CCCCO[C@H](CN(C)C(=O)C2CCCCC2)[C@@H](C)CN([C@H](C)CO)C(=O)c2cc(NC(=O)c3ccncc3)ccc2O1`, for which the cytotoxicity call was “inactive”.

`C[C@@H]1CN([C@@H](C)CO)C(=O)Cc2cc(NC(=O)CCN3CCOCC3)ccc2O[C@H]1CN(C)Cc1ccc(C(=O)O)cc1`: the cytotoxicity call is “inactive”.

Take `C[C@@H]1CN([C@@H](C)CO)C(=O)Cc2cc(NC(=O)CCCCCC(=O)Nc3ccccc3N)ccc2O[C@@H]1CN(C)Cc1ccc(Cl)c(Cl)c1`: the cytotoxicity call is “inactive”.

As to `COc1ccc(S(=O)(=O)N(C)C[C@@H]2Oc3ccc(N(C)C)cc3C(=O)N([C@@H](C)CO)C[C@H]2C)cc1`, the cytotoxicity call is “active”.

Turning to `Cc1noc(C)c1NC(=O)Nc1ccc2c(c1)C(=O)N([C@H](C)CO)C[C@@H](C)[C@@H](CN(C)C(=O)Nc1c(C)noc1C)OCCCC[C@@H](C)O2`, the cytotoxicity call was “inactive”.

As to `Cc1ccc(S(=O)(=O)Nc2cccc3c2O[C@H](CN(C)Cc2ccc(C(F)(F)F)cc2)[C@@H](C)CN([C@H](C)CO)C3=O)cc1`, the cytotoxicity call is “inactive”.

With `O=C(C[C@H]1C=C[C@@H](NC(=O)CN2CCOCC2)[C@@H](CO)O1)NC1CCC1`, the cytotoxicity call was “inactive”.

With `C[C@@H]1CCCCO[C@H](CN(C)S(=O)(=O)c2ccccc2)[C@H](C)CN([C@@H](C)CO)C(=O)c2cc(NC(=O)Nc3cccc4ccccc34)ccc2O1`, the cytotoxicity call is “inactive”.

With `C[C@H]1CN([C@@H](C)CO)C(=O)c2cc(NC(=O)c3ccncc3)ccc2O[C@H]1CN(C)S(=O)(=O)c1ccccc1`, the cytotoxicity call was “inactive”.

Regarding `Cc1noc(C)c1NC(=O)Nc1cccc2c1O[C@H](CN(C)S(=O)(=O)c1ccccc1)[C@@H](C)CN([C@H](C)CO)C2=O`, the cytotoxicity call was “inactive”.

On to `CC(C)NC(=O)N(C)C[C@H]1Oc2ccc(NC(=O)NC3CCCCC3)cc2C(=O)N([C@@H](C)CO)C[C@H]1C`, for which the cytotoxicity call is “inactive”.

With `COc1ccc(CN(C)C[C@@H]2Oc3c(NC(=O)Nc4ccc(C(F)(F)F)cc4)cccc3C(=O)N([C@@H](C)CO)C[C@H]2C)cc1`, the cytotoxicity call is “active”.

Turning to `C[C@H](CO)N1C[C@H](C)[C@H](CN(C)Cc2ccc(C(F)(F)F)cc2)OCCCC[C@H](C)Oc2ccc(NC(=O)Nc3ccc4c(c3)OCO4)cc2C1=O`, the cytotoxicity call is “inactive”.

As to `COc1ccc(CN(C)C[C@@H]2OCCCC[C@H](C)Oc3ccc(NS(=O)(=O)c4cccs4)cc3C(=O)N([C@@H](C)CO)C[C@H]2C)cc1`, the cytotoxicity call is “inactive”.

`CCN1C(=O)[C@H]2[C@H]3[C@H](O)[C@H](O)C/C(=N\OC[C@@H](O)COCc4ccco4)[C@@H]3CC[C@H]2C1=O`: the cytotoxicity call was “inactive”.

As to `Cc1ccccc1S(=O)(=O)N1C[C@H](O)COC[C@@H]2O[C@@H](CC(=O)NCCc3ccccc3)CC[C@H]21`, the cytotoxicity call is “inactive”.

Consider `O=C(C[C@@H]1C=C[C@H](NC(=O)CN2CCOCC2)[C@H](CO)O1)NCc1cccc(F)c1`, for which the cytotoxicity call is “inactive”.

For the compound `CC(C)NC(=O)N[C@H]1C=C[C@@H](CC(=O)NCCN2CCCC2)O[C@@H]1CO`, the cytotoxicity call was “inactive”.

Values taken from the antibiotic and cytotoxicity screens of Wong et al. (2023).
